The record followed here is the supplement of paper PMC10126150.

Sequences with one replicate were seen in a single cluster, so their values are uncertain.

The subject of this data set is ATP. The data set is described as follows: switch fluorescence ratio, 500 uM ATP over buffer (Cy3 cluster intensity, sum of 5 cycles each) (fold (ratio)); higher = stronger signal-on switching upon ATP binding; sequences stand for … in TCGTCGGCAGCGTCAGATGTGTATAAGAGACAGTTTTTTTTTTTTTTTTTTTTTTTTT…TC. The conditions noted are these: aptamer strand: ATP DNA aptamer (quencher-CACCTGGGGGAGTATTGCGGAGGAAGG + anchor), 100 nM annealed; ATP concentration: 500 uM; one replicate. The method, boiled down: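 Clusters carrying Cy3-labelled switching strands on a modified Illumina MiSeq flow-cell were annealed to 100 nM quencher-labelled ATP aptamer and imaged in selection buffer. They were imaged again after 15 min with 500 uM ATP at 22 °C, over five buffer/ATP cycles with NaOH stripping and re-annealing in between. For each cluster, the fluorescence ratio is the summed Cy3 intensity of the target cycles divided by that of the buffer cycles, averaged per switch-domain sequence. Clusters outside 100-1000 RFU were left out.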
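Also: ATP exposure 15 min at 22 °C before imaging.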

On to TTCTTGTGGA, for which the switch fluorescence ratio was determined as 0.998.
Regarding ATACCCAGTT, the switch fluorescence ratio was 1.02.
In the case of CCTCACTTTG, the switch fluorescence ratio came to 0.992.
Turning to AATCGTCTAT, the switch fluorescence ratio came to 1.02.
Turning to GAGCCGCCAA, the switch fluorescence ratio was found to be 1.46.
For GATCGTGTAG, the switch fluorescence ratio was 1.01.
Turning to ACATTTCAGT, the switch fluorescence ratio was determined as 1.03.
On to CCAAAAGGT, for which the switch fluorescence ratio was 1.
Take AGACTTTCAC: the switch fluorescence ratio stood at 1.1.
As for GCTATAGCCG, the figure is 0.976.
Next, CCTCTATGTT: 1.09.
Turning to ACTTTTAATC, the switch fluorescence ratio is 0.964.
As for GGCGAATTG, the figure is 1.
Consider AAGCGGGCCA, for which the switch fluorescence ratio is 1.08.
For CGTAATCTTC, the switch fluorescence ratio was 1.02.
Regarding AGATTTGAGT, the switch fluorescence ratio stood at 0.988.
On to AAGCGTCTTC, for which the switch fluorescence ratio worked out at 1.04.
As for GCTAGTATCC, the figure is 1; as for CAGGTAGTCC, 1.02; as for AACTTTCTTC, 1.03.
Regarding GCATTATCGG, the switch fluorescence ratio stood at 0.999.
Take GCTCATTGGA: the switch fluorescence ratio is 1.01.
Take AAAGTGATTC: the switch fluorescence ratio was 1.02.
As to CAACTAGTGA, the switch fluorescence ratio amounted to 1.02.
In the case of AGTATACGCG, the switch fluorescence ratio was determined as 1.03.
GGGCGTTGGT: the switch fluorescence ratio was 0.959.
Take CGATATACAC: the switch fluorescence ratio is 1.16.
Consider AAACCCGCCG, for which the switch fluorescence ratio came out at 0.982.
As for TAAGTGCGG, the figure is 0.979; as for GAGGTGTTAG, 0.991.
Next, AATTACTGA: 1.11.
As for CGAGAAGTGC, the figure is 1.15.
With TAATTAGGAG, the switch fluorescence ratio stood at 1.02.
CGTATCAAGT: the switch fluorescence ratio was determined as 1.01.
Next, TTTTGGCGTG: 0.95.
For TAAGGATTTG, the switch fluorescence ratio stood at 0.978.
With AATAGCTATG, the switch fluorescence ratio was found to be 1.
As to ATAGAGGAGC, the switch fluorescence ratio was 0.937.
As to CTCCAACCTC, the switch fluorescence ratio stood at 1.4.
For the sequence ATTGCGATTG, the switch fluorescence ratio was determined as 1.03.
Consider GGGAGTCGTC, for which the switch fluorescence ratio amounted to 1.
GGCGTTCAGT: the switch fluorescence ratio amounted to 0.988.
On to TTTGGGCCGG, for which the switch fluorescence ratio came out at 0.959.
As for GCTGTCGTGG, the figure is 0.998.
Consider CACGGTTATT, for which the switch fluorescence ratio turned out to be 1.09.
GCCGGTGGG: the switch fluorescence ratio was 1.02.
Next, ATCGGTTTCG: 0.946.
Regarding GTTGACAGGG, the switch fluorescence ratio came out at 1.05.
For CGGGTACTTG, the switch fluorescence ratio is 0.993.
As to CGGCGCACTG, the switch fluorescence ratio turned out to be 1.14.
For GTCCGTTTGA, the switch fluorescence ratio came out at 1.
TTCTCGGGA: the switch fluorescence ratio was determined as 0.997.
GGCAAAGTTG: the switch fluorescence ratio was determined as 0.978.
As to ACGCTCTGCC, the switch fluorescence ratio amounted to 1.02.
On to ATGAACGAGT, for which the switch fluorescence ratio is 1.01.
With GTACTAGTCC, the switch fluorescence ratio turned out to be 0.986.
Consider CATAGATAGA, for which the switch fluorescence ratio turned out to be 1.
Turning to ACTGTTTAAA, the switch fluorescence ratio turned out to be 0.976.
On to CGGGTAAGCG, for which the switch fluorescence ratio was 1.03.
For GGGAGTGACA, the switch fluorescence ratio came to 0.995.
TTTTTAGAAC: the switch fluorescence ratio worked out at 1.07.
With CCTCTTTTGA, the switch fluorescence ratio was found to be 1.09.
With CTCATTAGTA, the switch fluorescence ratio turned out to be 1.01.
As to GGCTTCGAAT, the switch fluorescence ratio was found to be 0.966.
Take CCGGGCAACA: the switch fluorescence ratio was 3.63.
On to TCTATTCAAC, for which the switch fluorescence ratio was 0.997.
For CGAGTGCCCC, the switch fluorescence ratio was determined as 1.02.
